# In the supplement of paper PMC8728848:
# This is one part of the list.
# B1: Gal 3C (Homo sapiens), P17931 (protein)
# chain: YGAPAGPLIVPYNLPLPGGVVPRMLITILGTVKPNANRIALDFQRGNDVAFHFNPRFNENNRRVIVCNTKLDNNWGREERQSVFPFESGKPFKIQVLVEPDHFKVAVNDAHLLQYNHRVKKLNEISKLGISGDIDLTSASYTMI
# How the values were obtained:
# Experiment in all cases: glycan array binding signal (z-score within array); higher = stronger binding
# Settings in all cases: glycan notation: IUPAC condensed, linker removed
# [1] = biological target: Gal(b1-4)GlcNAc(b1-3)Gal(b1-4)GlcNAc(b1-3)Gal(b1-4)GlcNAc(b1-3)Gal(b1-4)GlcNAc(b1-2)Man(a1-3)[Gal(b1-4)GlcNAc(b1-3)Gal(b1-4)GlcNAc(b1-3)Gal(b1-4)GlcNAc(b1-3)Gal(b1-4)GlcNAc(b1-2)Man(a1-6)]Man(b1-4)GlcNAc(b1-4)GlcNAc
# How it was run: (§1)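 The binding signal is a Z-score computed within each array. Data were drawn from 3228 arrays in the Consortium for Functional Glycomics database, restricted to those with a known protein sequence. Scores were averaged over arrays of the same protein sequence at different concentrations or buffers, and over linkers, and negative values can be taken as non-binding.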
# [2] = biological target: Gal(b1-4)GlcNAc(b1-3)Gal(b1-4)GlcNAc(b1-3)Gal(b1-4)GlcNAc(b1-3)Gal(b1-4)GlcNAc(b1-2)Man(a1-3)[Gal(b1-4)GlcNAc(b1-3)Gal(b1-4)GlcNAc(b1-3)Gal(b1-4)GlcNAc(b1-3)Gal(b1-4)GlcNAc(b1-2)Man(a1-6)]Man(b1-4)GlcNAc(b1-4)[Fuc(a1-6)]GlcNAc
# How it was run: as §1
# [3] = biological target: Gal(b1-4)GlcNAc(b1-3)Gal(b1-4)GlcNAc(b1-3)Gal(b1-4)GlcNAc(b1-3)Gal(b1-4)GlcNAc(b1-2)[Gal(b1-4)GlcNAc(b1-3)Gal(b1-4)GlcNAc(b1-3)Gal(b1-4)GlcNAc(b1-3)Gal(b1-4)GlcNAc(b1-6)]Man(a1-6)[Gal(b1-4)GlcNAc(b1-3)Gal(b1-4)GlcNAc(b1-3)Gal(b1-4)GlcNAc(b1-3)Gal(b1-4)GlcNAc(b1-2)Man(a1-3)]Man(b1-4)GlcNAc(b1-4)[Fuc(a1-6)]GlcNAc
# How it was run: as §1
# [4] = biological target: Gal(b1-4)GlcNAc(b1-3)Gal(b1-4)GlcNAc(b1-3)Gal(b1-4)GlcNAc(b1-3)Gal(b1-4)GlcNAc(b1-3)Gal(b1-4)GlcNAc(b1-2)Man(a1-3)[Gal(b1-4)GlcNAc(b1-3)Gal(b1-4)GlcNAc(b1-3)Gal(b1-4)GlcNAc(b1-3)Gal(b1-4)GlcNAc(b1-3)Gal(b1-4)GlcNAc(b1-2)Man(a1-6)]Man(b1-4)GlcNAc(b1-4)GlcNAc
# How it was run: as §1
# [5] = biological target: Gal(b1-4)GlcNAc(b1-3)Gal(b1-4)GlcNAc(b1-3)Gal(b1-4)GlcNAc(b1-3)Gal(b1-4)GlcNAc(b1-3)Gal(b1-4)GlcNAc(b1-2)Man(a1-3)[Gal(b1-4)GlcNAc(b1-3)Gal(b1-4)GlcNAc(b1-3)Gal(b1-4)GlcNAc(b1-3)Gal(b1-4)GlcNAc(b1-3)Gal(b1-4)GlcNAc(b1-2)Man(a1-6)]Man(b1-4)GlcNAc(b1-4)[Fuc(a1-6)]GlcNAc
# How it was run: as §1
# [6] = biological target: Gal(b1-4)GlcNAc(b1-3)Gal(b1-4)GlcNAc(b1-3)Gal(b1-4)GlcNAc(b1-3)Gal(b1-4)GlcNAc(b1-3)Gal(b1-4)GlcNAc(b1-2)[Gal(b1-4)GlcNAc(b1-3)Gal(b1-4)GlcNAc(b1-3)Gal(b1-4)GlcNAc(b1-3)Gal(b1-4)GlcNAc(b1-3)Gal(b1-4)GlcNAc(b1-6)]Man(a1-6)[Gal(b1-4)GlcNAc(b1-3)Gal(b1-4)GlcNAc(b1-3)Gal(b1-4)GlcNAc(b1-3)Gal(b1-4)GlcNAc(b1-3)Gal(b1-4)GlcNAc(b1-2)Man(a1-3)]Man(b1-4)GlcNAc(b1-4)[Fuc(a1-6)]GlcNAc
# How it was run: as §1
# [7] = biological target: Gal(b1-4)GlcNAc(b1-3)Gal(b1-4)GlcNAc(b1-3)Gal(b1-4)GlcNAc(b1-3)Gal(b1-4)GlcNAc(b1-3)Gal(b1-4)GlcNAc(b1-3)Gal(b1-4)GlcNAc(b1-2)Man(a1-3)[Gal(b1-4)GlcNAc(b1-3)Gal(b1-4)GlcNAc(b1-3)Gal(b1-4)GlcNAc(b1-3)Gal(b1-4)GlcNAc(b1-3)Gal(b1-4)GlcNAc(b1-3)Gal(b1-4)GlcNAc(b1-2)Man(a1-6)]Man(b1-4)GlcNAc(b1-4)GlcNAc
# How it was run: as §1
# [8] = biological target: Gal(b1-4)GlcNAc(b1-3)Gal(b1-4)GlcNAc(b1-3)GalNAc
# How it was run: as §1
# [9] = biological target: Gal(b1-4)GlcNAc(b1-3)Gal(b1-4)GlcNAc(b1-3)[Gal(b1-4)GlcNAc(b1-3)Gal(b1-4)GlcNAc(b1-6)]GalNAc
# How it was run: as §1
# [10] = biological target: Gal(b1-4)GlcNAc(b1-3)Gal(b1-4)GlcNAc(b1-6)[Gal(b1-3)]GalNAc
# How it was run: as §1
# [11] = biological target: Gal(b1-4)GlcNAc(b1-3)Gal(b1-4)[Fuc(a1-3)]GlcNAc(b1-3)Gal(b1-4)[Fuc(a1-3)]GlcNAc
# How it was run: as §1
# [12] = biological target: Gal(b1-4)GlcNAc(b1-3)GalNAc
# How it was run: as §1
# [13] = biological target: Gal(b1-4)GlcNAc(b1-3)[Fuc(a1-3)GlcNAc(b1-6)]Gal(b1-4)Glc
# How it was run: as §1
# [14] = biological target: Gal(b1-4)GlcNAc(b1-3)[Gal(b1-4)GlcNAc(b1-6)]Gal(b1-4)GlcNAc
# How it was run: as §1
# [15] = biological target: Gal(b1-4)GlcNAc(b1-3)[GlcNAc(b1-6)]Gal(b1-4)GlcNAc
# How it was run: as §1
# [16] = biological target: Gal(b1-4)GlcNAc(b1-6)Gal(b1-4)GlcNAc
# How it was run: as §1
# [17] = biological target: Gal(b1-4)GlcNAc(b1-6)GalNAc
# How it was run: as §1
# [18] = biological target: Gal(b1-4)GlcNAc(b1-6)[Gal(b1-3)]GalNAc
# How it was run: as §1
# [19] = biological target: Gal(b1-4)GlcNAc(b1-6)[Gal(b1-4)GlcNAc(b1-3)]GalNAc
# How it was run: as §1
# Gal(b1-4)GlcNAc6P = biological target: Gal(b1-4)GlcNAc6P
# How it was run: as §1
# Gal(b1-6)Gal = biological target: Gal(b1-6)Gal
# How it was run: as §1
# Gal3S(b1-3)GalNAc = biological target: Gal3S(b1-3)GalNAc
# How it was run: as §1
# Gal3S(b1-3)GlcNAc = biological target: Gal3S(b1-3)GlcNAc
# How it was run: as §1
binder,measurement,setting,value
B1,glycan array binding signal (z-score),[1],5.03
same,glycan array binding signal (z-score),[2],4.24
same,glycan array binding signal (z-score),[3],4.44
same,glycan array binding signal (z-score),[4],4.06
same,glycan array binding signal (z-score),[5],6.46
same,glycan array binding signal (z-score),[6],6.39
same,glycan array binding signal (z-score),[7],4.39
same,glycan array binding signal (z-score),[8],0.14
same,glycan array binding signal (z-score),[9],0.129
same,glycan array binding signal (z-score),[10],0.076
same,glycan array binding signal (z-score),[11],-0.321
same,glycan array binding signal (z-score),[12],-0.238
same,glycan array binding signal (z-score),[13],-0.11
same,glycan array binding signal (z-score),[14],-0.216
same,glycan array binding signal (z-score),[15],-0.225
same,glycan array binding signal (z-score),[16],-0.281
same,glycan array binding signal (z-score),[17],-0.216
same,glycan array binding signal (z-score),[18],-0.296
same,glycan array binding signal (z-score),[19],-0.244
same,glycan array binding signal (z-score),Gal(b1-4)GlcNAc6P,-0.309
same,glycan array binding signal (z-score),Gal(b1-6)Gal,-0.339
same,glycan array binding signal (z-score),Gal3S(b1-3)GalNAc,-0.289
same,glycan array binding signal (z-score),Gal3S(b1-3)GlcNAc,-0.173
